The text below walks through data of the supplement of paper PMC4604168 (melanoma cell lines).

This is one part of the list. Repeats are few or missing, and single values can be far off.

Among the test systems are COLO792; COLO800; COLO829; G361; IPC-298; IST-MEL1; LB2518-MEL; LOXIMVI; MEL-HO.
Assay in all cases: cell count relative to DMSO control; melanoma cells; higher = more viable cells
What all share (conditions): library dose: low library concentration; 72 h
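Note: cell number obtained by counting DAPI-stained nuclei in high-throughput microscope images with image analysis software, screen run in 1,536-well plates.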

As to `CC[C@]1(O)C[C@H]2CN(CCc3c([nH]c4ccccc34)[C@@](C(=O)OC)(c3cc4c(cc3OC)N(C=O)[C@H]3[C@@](O)(C(=O)OC)[C@H](OC(C)=O)[C@]5(CC)C=CCN6CC[C@]43[C@@H]65)C2)C1` [vincristine] + O=c1cc(-c2cccc3c2Sc2ccccc2S3)oc(N2CCOCC2)c1 [KU55933] (first compound 0.0001 µM, partner dose 1 µM), the cell count is 95.7% in the assay on COLO792; 166% with COLO800; 66.7% with COLO829; 94.6% in the assay on G361; 97.7% with IPC-298; 99.3% with IST-MEL1. Further, the cell count in the assay on LB2518-MEL was 85.8%; with LOXIMVI, 77.8%; in the assay on MEL-HO, 94.9%.

With `Cc1cc(Nc2cc(N3CCN(C)CC3)nc(Sc3ccc(NC(=O)C4CC4)cc3)n2)n[nH]1` [Tozasertib] + O=C(O)c1ccc(-c2c[nH]c3ncc(-c4ccccc4)cc23)cc1C1CCCC1 [GSK650394] (first compound 0.006 µM, partner dose 0.16 µM), the cell count was 93% with COLO792; 109% in the assay with COLO800; 91.4% with COLO829; 92.9% in the assay with G361; 98.3% in the assay on IPC-298; 82.7% with IST-MEL1. Further, the cell count with LB2518-MEL was 95%; with LOXIMVI, 65.5%; in the assay on MEL-HO, 79.2%.

Regarding `Cc1cc(Nc2cc(N3CCN(C)CC3)nc(Sc3ccc(NC(=O)C4CC4)cc3)n2)n[nH]1` [Tozasertib] + C=CCn1c(=O)c2cnc(Nc3ccc(N4CCN(C)CC4)cc3)nc2n1-c1cccc(C(C)(C)O)n1 [MK1775] (first compound 0.006 µM, partner dose 0.02 µM), the cell count with COLO792 was determined as 87.5%; in the assay on COLO800 it was 83.4%; in the assay on COLO829, 98.1%; in the assay on G361, 91.1%; with IPC-298 it was 88.9%; with IST-MEL1, 101%. The results for the cell count in the assay with LB2518-MEL, in the assay on LOXIMVI and in the assay on MEL-HO were 68.4%, 122% and 93.1%, respectively.

For `CC[C@]1(O)C[C@H]2CN(CCc3c([nH]c4ccccc34)[C@@](C(=O)OC)(c3cc4c(cc3OC)N(C=O)[C@H]3[C@@](O)(C(=O)OC)[C@H](OC(C)=O)[C@]5(CC)C=CCN6CC[C@]43[C@@H]65)C2)C1` [vincristine] + CC1(C)NC(=O)N(c2ccc([N+](=O)[O-])c(C(F)(F)F)c2)C1=O [nilutamide] (first compound 0.0001 µM, partner dose 1 µM), the cell count came out at 90.5% in the assay with COLO792; 97.1% in the assay with COLO800; 93.5% in the assay with COLO829; 91.2% in the assay on G361; 101% in the assay with IPC-298; 96.7% in the assay on IST-MEL1. The cell count in the assay with LB2518-MEL amounted to 102%; in the assay with LOXIMVI, 91.5%; in the assay on MEL-HO, 99.5%.

`Cc1cc(Nc2cc(N3CCN(C)CC3)nc(Sc3ccc(NC(=O)C4CC4)cc3)n2)n[nH]1` [Tozasertib] + CO[C@@H]1[C@H](N(C)C(=O)c2ccccc2)C[C@H]2O[C@]1(C)n1c3ccccc3c3c4c(c5c6ccccc6n2c5c31)C(=O)NC4 [Midostaurin] (first compound 0.006 µM, partner dose 0.08 µM): the cell count in the assay with COLO792 came out at 94.6%; in the assay on COLO800 it was 56.6%; in the assay with COLO829, 89.8%; in the assay on G361 it was 88.5%; in the assay with IPC-298, 93.1%; in the assay on IST-MEL1 it was 96.9%. The cell count in the assay on LB2518-MEL was 97.6%; in the assay on LOXIMVI, 139%; in the assay with MEL-HO it was 98.4%.

In the case of `CC[C@]1(O)C[C@H]2CN(CCc3c([nH]c4ccccc34)[C@@](C(=O)OC)(c3cc4c(cc3OC)N(C=O)[C@H]3[C@@](O)(C(=O)OC)[C@H](OC(C)=O)[C@]5(CC)C=CCN6CC[C@]43[C@@H]65)C2)C1` [vincristine] + Cn1cc(/C=C2\C(=O)Nc3cccnc32)c2ccccc21 [GW441756] (first compound 0.0001 µM, partner dose 0.4 µM), the cell count with COLO792 was 130%; with COLO800, 120%; in the assay on COLO829 it was 98.4%; in the assay with G361, 104%; with IPC-298 it was 102%; in the assay with IST-MEL1, 91.6%. For the same compound, the cell count in the assay with LB2518-MEL was found to be 110%; in the assay on LOXIMVI, 60.8%; in the assay on MEL-HO it was 102%.

In the case of `Cc1cc(Nc2cc(N3CCN(C)CC3)nc(Sc3ccc(NC(=O)C4CC4)cc3)n2)n[nH]1` [Tozasertib] + c1cc(-c2cnn3cc(-c4ccc(OCCN5CCCCC5)cc4)cnc23)ccn1 [Dorsomorphin] (first compound 0.006 µM, partner dose 0.4 µM), the cell count was found to be 86.9% in the assay on COLO792; 85.3% in the assay on COLO800; 90.6% in the assay on COLO829; 109% in the assay on G361; 101% in the assay on IPC-298; 104% with IST-MEL1. Moreover, the cell count with LB2518-MEL was determined as 84%; with LOXIMVI, 78.4%; with MEL-HO, 102%.

For the compound `CC[C@]1(O)C[C@H]2CN(CCc3c([nH]c4ccccc34)[C@@](C(=O)OC)(c3cc4c(cc3OC)N(C=O)[C@H]3[C@@](O)(C(=O)OC)[C@H](OC(C)=O)[C@]5(CC)C=CCN6CC[C@]43[C@@H]65)C2)C1` [vincristine] + COc1ccc2c(c1)CCC1C2CCC2(C)C(NCCCCCCN3C(=O)C=CC3=O)CCC12 [U73122] (first compound 0.0001 µM, partner dose 0.4 µM), the cell count is 112% in the assay with COLO792; 92.7% in the assay on COLO800; 114% with COLO829; 107% with G361; 101% in the assay on IPC-298; 96.2% in the assay on IST-MEL1. The cell count is 92% in the assay on LB2518-MEL, 97.1% with LOXIMVI and 113% in the assay on MEL-HO.

In the case of `Cc1cc(Nc2cc(N3CCN(C)CC3)nc(Sc3ccc(NC(=O)C4CC4)cc3)n2)n[nH]1` [Tozasertib] + Cn1cc(/C=C2\C(=O)Nc3cccnc32)c2ccccc21 [GW441756] (first compound 0.006 µM, partner dose 0.4 µM), the cell count with COLO792 stood at 105%; with COLO800, 56.4%; in the assay with COLO829 it was 107%; with G361, 113%; with IPC-298, 91.8%; with IST-MEL1 it was 93.3%. For the same compound, the figures for the cell count in the assay with LB2518-MEL, in the assay with LOXIMVI and with MEL-HO were 94.9%, 96.2% and 103%, respectively.

`N#CC[C@H](C1CCCC1)n1cc(-c2ncnc3[nH]ccc23)cn1` [ruxolitinib] + Cc1ccc(NC(=O)c2cccc(N(C)C)c2)cc1NC(=O)c1ccc(O)cc1 [ZM336372] (first compound 1 µM, partner dose 2 µM): the cell count with COLO792 turned out to be 104%; in the assay on COLO800, 150%; with COLO829, 122%; in the assay on G361 it was 101%; with IPC-298, 87.3%; in the assay on IST-MEL1, 89.1%. Further, the cell count in the assay on LB2518-MEL came out at 91.6%; in the assay with LOXIMVI, 107%; in the assay with MEL-HO, 102%.

In the case of `CC[C@]1(O)C[C@H]2CN(CCc3c([nH]c4ccccc34)[C@@](C(=O)OC)(c3cc4c(cc3OC)N(C=O)[C@H]3[C@@](O)(C(=O)OC)[C@H](OC(C)=O)[C@]5(CC)C=CCN6CC[C@]43[C@@H]65)C2)C1` [vincristine] + O=C(Nc1ccccc1)c1cc([N+](=O)[O-])ccc1Cl [GW9662] (first compound 0.0001 µM, partner dose 2 µM), the cell count with COLO792 is 118%; with COLO800, 80%; in the assay with COLO829, 80.3%; in the assay on G361, 106%; in the assay with IPC-298, 99.4%; in the assay with IST-MEL1, 101%. The values for the cell count in the assay on LB2518-MEL, in the assay on LOXIMVI and in the assay on MEL-HO were 84.3%, 84.3% and 99.2%, respectively.

Turning to `N#CC[C@H](C1CCCC1)n1cc(-c2ncnc3[nH]ccc23)cn1` [ruxolitinib] + COc1cc2c(Oc3ccc4[nH]c(C)cc4c3F)ncnc2cc1OCCCN1CCCC1 [cediranib] (first compound 1 µM, partner dose 0.4 µM), the cell count is 117% in the assay with COLO792; 89.3% with COLO800; 77.9% with COLO829; 88.5% in the assay with G361; 115% with IPC-298; 101% in the assay on IST-MEL1. Besides, the cell count is 135% with LB2518-MEL, 98% in the assay with LOXIMVI and 90.4% in the assay on MEL-HO.

With `Cc1cc(Nc2cc(N3CCN(C)CC3)nc(Sc3ccc(NC(=O)C4CC4)cc3)n2)n[nH]1` [Tozasertib] + COc1cc(Nc2ncc(F)c(Nc3ccc4c(n3)NC(=O)C(C)(C)O4)n2)cc(OC)c1OC [Tamatinib] (first compound 0.006 µM, partner dose 0.4 µM), the cell count in the assay with COLO792 was 60.2%; in the assay with COLO800, 124%; in the assay with COLO829, 83%; with G361, 91.9%; in the assay with IPC-298 it was 74.5%; in the assay with IST-MEL1, 86.1%. For the same compound, the cell count in the assay with LB2518-MEL is 77.7%; in the assay on LOXIMVI it was 87.1%; with MEL-HO, 85.9%.

For the compound `N#CC[C@H](C1CCCC1)n1cc(-c2ncnc3[nH]ccc23)cn1` [ruxolitinib] + O=C(Nc1ccccc1)c1cc([N+](=O)[O-])ccc1Cl [GW9662] (first compound 1 µM, partner dose 2 µM), the cell count in the assay on COLO792 was found to be 108%; in the assay on COLO800, 126%; with COLO829 it was 98.1%; with G361 it was 89.3%; with IPC-298, 96.9%; with IST-MEL1, 94.5%. Further, the cell count in the assay with LB2518-MEL worked out at 116%; in the assay with LOXIMVI it was 86.2%; in the assay on MEL-HO it was 88.2%.
